Structures are written as SMILES. Hit rate of the full screen: of about 43,000 compounds, about 200 (0.47%) were called active. Another 12% or so got no clear call; they are omitted. Calls come from the whole dose curve; as a rule, active = well fitted cell-killing curve with a large enough effect; inconclusive = small, poorly fitted or top-dose-only effect, or effect the other way; inactive = flat fitted curve, though single readings scatter. This is one part of the list.
% is set by controls: 0 for no effect and ±100 for the full control effect.

The experiment can be described thus: Cell viability qHTS assay in S16 Pmp22-F2sN cells. Note: nearly all actives have a fitted effect of over 65% in size. The note with it: S16 Pmp22-F2sN Schwann cells viability, CellTiter-Glo, 24 h; series mostly up to 57.5 µM; activity change, negative = cytotoxicity: at the top concentration. The gist of the method: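 Viability was measured by CellTiter-Glo luminescence (15 min, room temperature). This followed 24 h at 37 °C of compound exposure (23 nL pin transfer) in S16 Pmp22-F2sN Schwann cells, 500-1,000 per well.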
Regarding `CCCC(=O)n1nc(-c2cccnc2)nc1NCc1ccccc1`, the “activity change, negative = cytotoxicity” value was inactive: -1.21%. Under `COc1ccc(N2CCN(C(=O)Nc3ccccc3Cl)CC2)cc1` stands inactive: -8.19%; under `COc1ccc(Cn2c(CCC(=O)Nc3ccc(OC)c(Cl)c3)nc3cccnc32)cc1`, inactive: 3.1%; under `O=C(NCCc1ccc(Cl)cc1)c1ccc(CSCc2ccc(Cl)cc2)o1`, inactive: -6.06%. Under `Clc1ccccc1-c1nnc(SCc2nc(-c3ccccc3)no2)n1-c1ccccc1` stands inactive: -20.8%; under `COc1cccc(NC(=O)CSC2=Nc3ccccc3C3=NC(CC(=O)NCc4ccccc4OC)C(=O)N23)c1` (configuration not stated), inactive: -10.2%; under `CCCCNC(=O)CCSc1nc(-c2ccc3c(c2)OCO3)cc(C(F)(F)F)n1`, inactive: -1.33%. Take `O=c1oc2ccc(Cl)cc2cc1-c1cn2c(n1)sc1ccccc12`: the “activity change, negative = cytotoxicity” value was inactive: -0.606%.

Take `CCOC(=O)N1CCN(S(=O)(=O)N2CCCC(C(=O)NCc3ccc(OC)cc3OC)C2)CC1` (configuration not stated): the “activity change, negative = cytotoxicity” value is inactive: 9.69%.

As for `COc1ccc(NS(=O)(=O)c2c(C)nc3scc(C)n3c2=O)cc1`, the “activity change, negative = cytotoxicity” value was inactive: -22.2%. Under `O=C(Nc1ccc2nc(SCC(=O)N3CCOCC3)sc2c1)c1cccc(F)c1` stands inactive: 15.3%; under `O=C(Nc1cc(-c2nc3cc(Cl)ccc3o2)ccc1Cl)c1cc([N+](=O)[O-])ccc1N1CCOCC1`, inactive: 3.45%. Under `Cc1cc2n(n1)CCC(=O)N2Cc1ccc(C(=O)Nc2ccc(F)cc2F)cc1` stands inactive: -12.4%; under `COc1ccc(-c2nc3scc(CCNC(=O)c4cccc(Br)c4)n3n2)cc1`, inactive: 22.4%; under `Cc1cc(-c2ccc(S(=O)(=O)N3CCN(c4ccc(Cl)cc4)CC3)s2)on1`, inactive: 1.76%. For `CCOC(=O)c1ccc(N2C(=O)c3[nH]nc(-c4ccc(OCC)cc4)c3C2c2cccs2)cc1` (configuration not stated), the “activity change, negative = cytotoxicity” value is inactive: 4.31%.

Turning to `CCOC(=O)c1ccc(NC(=O)CC2Nc3ccccc3NC2=O)cc1` (configuration not stated), the “activity change, negative = cytotoxicity” value was inactive: -2.59%.

Regarding `CCOc1cccc2c1Oc1nc(-c3ccccc3)nc(SCC(=O)Nc3ccc(F)cc3)c1C2`, the “activity change, negative = cytotoxicity” value was inactive: 8.89%. As to `O=C(c1ccccc1Cl)N1CCCCC1CCN1CCOCC1` (configuration not stated), the “activity change, negative = cytotoxicity” value is inactive: 25.1%.

Regarding `Cc1ccc(CNCc2cccn2-c2nnc(N3CCCC3)s2)cc1`, the “activity change, negative = cytotoxicity” value was inactive: -5.81%. As for `COc1ccc(CNC(=O)Cn2c(=O)ccc3cc(S(=O)(=O)N4CCCC4)ccc32)cc1`, the “activity change, negative = cytotoxicity” value was inactive: 3.57%. Under `Cc1ccc(Cn2c(CNC(=O)Cc3cccc(C)c3)nc3cccnc32)cc1` stands inactive: 0.214%; under `CC(=O)c1ccc(N2CCN(S(=O)(=O)c3cc(-c4noc(C)n4)ccc3C)CC2)cc1`, inactive: 16.6%; under `Cc1nn(S(=O)(=O)c2ccc(C(C)(C)C)cc2)c(C)c1S(=O)(=O)N1CCC(C)CC1`, inactive: 11%. With `CCOC(=O)c1c(NC(=O)COc2ccc(C)cc2C(C)(C)C)sc2c1CCC(C)C2` (configuration not stated), the “activity change, negative = cytotoxicity” value is inactive: 9.08%.

Consider `Cc1c(C(=O)N2CCC(C)CC2)c(S(=O)(=O)Nc2cccc(C(F)(F)F)c2)c(C)n1C`, for which the “activity change, negative = cytotoxicity” value is inactive: 3.33%. As for `CC(C)N(Cc1ccccc1)C(=O)C1CCCN(c2ncnc3onc(-c4ccc(F)cc4)c23)C1` (configuration not stated), the figure is inactive: -5.65%.

Take `COCC(=O)Nc1cccc(-c2nc3cccnc3s2)c1`: the “activity change, negative = cytotoxicity” value is inactive: 7.74%.

As to `COc1ccccc1CNC(=O)c1cnc(SC)nc1C`, the “activity change, negative = cytotoxicity” value is inactive: 5.33%.

With `COc1ccc2[nH]cc(CCNC(=O)c3cnn(-c4ccc(C)cc4)c3C3CCN(C(=O)OC(C)(C)C)CC3)c2c1`, the “activity change, negative = cytotoxicity” value was inactive: 3.33%. Consider `COCCN1C(=O)c2oc3ccc(C)cc3c(=O)c2C12C(=O)N(C)c1ccccc12` (configuration not stated), for which the “activity change, negative = cytotoxicity” value is inactive: 3.9%. Under `CC(=O)Nc1ccc(NC(=O)C2(c3cccs3)CCOCC2)cc1` stands inactive: 5.1%; under `Cc1ccc(NC(=O)CSc2nc(=O)n(Cc3ccco3)c3c2CCC3)cc1F`, inactive: -13.1%; under `O=C(Nc1sc2c(c1C(=O)Nc1cccc(Cl)c1)CCCC2)c1cccs1`, inactive: -9.33%. Consider `Cn1c(=O)c(=O)n(C)c2cc(N3CCCC3)c(NC(=O)c3ccccc3F)cc21`, for which the “activity change, negative = cytotoxicity” value was inactive: 10.7%. As to `CCn1nc(-c2ccccc2)c(-c2ccccc2)c(C(=O)Nc2nc(C)c(C(C)=O)s2)c1=O`, the “activity change, negative = cytotoxicity” value is inactive: 3.03%. Under `CCC(=O)N1CCc2cc(CNC(=O)c3ccc(OC)cc3)ccc21` stands inactive: -2.85%; under `CCCCn1cc(S(=O)(=O)c2ccc(C)c(C)c2)c(=O)c2cc(F)c(N(CC)CC)cc21`, inactive: -23.6%.

As to `COc1ccc(-c2nc(CN3CCC(C(=O)NCCc4ccccc4)CC3)c(C)o2)cc1OC`, the “activity change, negative = cytotoxicity” value is inactive: 3.57%. With `CCn1nnc2cc(C(=O)Nc3ccc(C)c(Cl)c3)ccc21`, the “activity change, negative = cytotoxicity” value is inactive: -7.49%. Take `Cc1ccc(NC(=O)c2cc(S(=O)(=O)NC3CCCCC3)ccc2F)cc1Cl`: the “activity change, negative = cytotoxicity” value was inactive: -31.5%. Regarding `Cc1ccc2c(c1)-c1onc(C(=O)N3CCN(c4cc(Cl)ccc4C)CC3)c1CO2`, the “activity change, negative = cytotoxicity” value was inactive: -14.6%. Under `COC(=O)c1ccccc1NC(=O)c1cc(CN2CCCC2)on1` stands inactive: -4.64%; under `CC1Cc2ccccc2N1S(=O)(=O)c1nnc(NC(=O)c2cccc(F)c2)s1` (configuration not stated), inactive: -3.65%; under `CCC(=O)N1CCc2cc(CNC(=O)Cc3ccc(F)cc3)ccc21`, inactive: -1.96%. In the case of `Cc1cccc(Cn2c(COc3ccc(Cl)cc3)nc3ccccc32)c1`, the “activity change, negative = cytotoxicity” value is inactive: -29.7%. As for `Cc1ccc(CCNC(=O)c2cc3n(n2)CCCN(Cc2ccc(C)cc2)C3=O)cc1`, the figure is inactive: 0.668%.
